Laboratory results published in PubChem BioAssay AID1458 (National Center for Advancing Translational Sciences (NCATS), 2008).
Out of some 210,000 compounds screened, about 5,900 (2.8%) were called active. The shares of active, inactive and inconclusive entries below differ from those in the screen. The call rests on the fitted dose curve; in most records, active means well fitted activation curve with a large enough effect; inconclusive means small, poorly fitted or top-dose-only effect; inactive means no such curve, though single readings can be large or run the other way. Potencies of inconclusive entries are doubtful fits and often do not repeat.

Test: qHTS Assay for Enhancers of SMN2 Splice Variant Expression; further: nearly all actives have a fitted effect of over 55% in size; on activity change, positive = activation: % of control where 0% means no effect
Conditions: HEK293 SMN2-luciferase splicing reporter, luminescence, 30-36 h; activity change, positive = activation: at 46.1 µM (top of the series)
Procedure, shortened: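 HEK293 cells carry an SMN2 minigene-luciferase reporter in which exon 7 inclusion puts luciferase in frame. Cells were seeded at 2000 cells/well, attached for 10-12 hours, then exposed to compounds for 30-36 hours at 37C before ONE-Glo luminescence.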
Potency means the concentration at half of the fitted maximal effect; tags describe the fitted curve by direction and shape.

Question: For `COC(=O)c1ccc(COC(=O)CNC(=O)c2ccc(-c3ccccc3)cc2)cc1`, which activity change, positive = activation is on record?
Answer: inconclusive: 61.7% [activator]

Question: For `COc1ccc(Cn2c(C)nnc2-c2cnn(C)c2N)cc1`, which “activity change, positive = activation” value is on record?
Answer: inactive: 2.8%

Question: Which Potency does the source give for `COc1ccc(CNc2oc(/C=C/c3cc(OC)c(OC)c(OC)c3)nc2C#N)cc1` here?
Answer: inconclusive: 22.4 µM [activator, single point]

Question: With `CC(=O)Nc1nnc(SCc2ccccc2F)s1` as the compound, how does the Potency read?
Answer: inconclusive: 0.0141 µM [activator, full curve, poor fit]

Question: With `CC(C)NC(=S)N/N=C/c1c[nH]c2ccccc12` as the compound, how does the Potency read?
Answer: inconclusive: 35.5 µM [activator, single point]

Question: With `N/C(=N\OC(=O)c1ccc2ccccc2c1)c1ccc(Br)cc1` as the compound, how does the Potency read?
Answer: inconclusive: 15.8 µM [activator, partial curve, poor fit]

Question: For `O=C(O)c1ccccc1CSc1ccccn1`, which “activity change, positive = activation” value is on record?
Answer: inactive: -5.27%

Question: With `O=C(NCC(=O)N(CC1CCCO1)C(C(=O)NC1CCCCC1)c1cccnc1)c1cccs1` (stereo not given) as the compound, how does the “activity change, positive = activation” value read?
Answer: inactive: -0.032%

Question: Which Potency does the source give for `COc1ccc(NC(=O)Nc2ccccc2OC)cc1` here?
Answer: inconclusive: 35.5 µM [activator, single point]

Question: With `Cc1cc(C)n2nc(NCc3cccc(Br)c3)nc2n1` as the compound, how does the Potency read?
Answer: inconclusive: 14.1 µM [activator, partial curve, poor fit]

Question: With `Cc1nn(-c2nc3ccccc3s2)c(C)c1Oc1ccccc1O` as the compound, how does the Potency read?
Answer: inconclusive: 35.5 µM [activator, single point]

Question: Which “activity change, positive = activation” value does the source give for `COc1ccc(/C=N/NC(=O)c2ccccc2O)cc1CSc1ccccn1` here?
Answer: inactive: 2.79%

Question: For `c1ccn2cc(-c3ccc4c(c3)OCO4)cc2c1`, which Potency is on record?
Answer: active: 12.6 µM

Question: Which Potency does the source give for `COc1cccc(NC(=O)c2cccc(C)c2[N+](=O)[O-])c1` here?
Answer: inconclusive: 11.2 µM [activator, partial curve, poor fit]

Question: For `O=C(CSc1ncn(-c2ccccc2)n1)Nc1nc(-c2ccccc2)cs1`, which Potency is on record?
Answer: inconclusive: 8.91 µM [activator, partial curve]

Question: With `CCn1c(=O)c2cc(C(=O)N(C)c3cc(C)ccc3C)sc2c2ccccc21` as the compound, how does the “activity change, positive = activation” value read?
Answer: inactive: 0.702%

Question: For `COc1ccc(C(=O)Nc2cccc(/C(C)=N/NC(=O)c3ccc([N+](=O)[O-])cc3)c2)cc1OC`, which “activity change, positive = activation” value is on record?
Answer: inactive: -4.72%

Question: For `COc1ccc(CNC(=O)[C@H](C)[C@@H]2C[C@@]2(C)[C@@H](NC(=O)OCc2ccccc2)c2ccccc2)cc1OC`, which Potency is on record?
Answer: inconclusive: 0.0316 µM [activator, full curve, poor fit]

Question: For `Nc1nnc(SCC(=O)NC2CCCCC2)n1-c1ccccc1`, which Potency is on record?
Answer: inconclusive: 5.62 µM [activator, single point]

Question: Which Potency does the source give for `O=C(Nc1ccccc1)Nc1cccc2nsnc12` here?
Answer: active: 11.2 µM
